The other results are listed elsewhere or left out.
The sequences below were run on PfHDP1 homeodomain (GST-tagged) (assay: gcPBM binding intensity (ln(normalized median fluorescence intensity)); higher = stronger DNA binding).
Outline: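 DNA-binding domains from P. falciparum, fused to GST and produced in E. coli, were put on an Agilent 4 × 180k double-stranded probe array for 1 h in 1× PBS holding 1% milk, 0.2 mg/ml BSA, 0.5% salmon testes DNA and 0.03% Triton X-100. Probes were primer-extended, 36 bp long and drawn from intergenic genomic regions, with negative controls included. After Alexa488 anti-GST antibody detection and a 488 nm scan, binding intensity was set as the highest Masliner-normalised natural-log median intensity across replicate spots of either probe orientation.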
With “ATGTAAAACATAAAATGTACATATTATACAAACTAT [XGTACX_site5797]” the “gcPBM binding intensity (ln)” value was 6.87. With “TAAGTATAAATATTTACACACATTTGTTTTTTTTTA [CACACA_site7731]” the “gcPBM binding intensity (ln)” value was 6.3. In the case of “AATAAAATAATAAAAGCACACAAGAATACAGACAAA [CACACA_site112]”, the “gcPBM binding intensity (ln)” value is reported as 7.23. With “TTGGATTTTCCATAATGTACACATAAAAGTGTTACA [XGTACX_site4544]” the “gcPBM binding intensity (ln)” value was 6.09. “TTTTAAAAAATATAATATAATATAATATAAAATAAA [CACACA_negctrl_site154]” was tested, and the “gcPBM binding intensity (ln)” value was 6.19. “ACAGTATCTGGTAGCTGTACGGATTGTAGAGAGTAG [XGTACX_site4872]” was tested, and the “gcPBM binding intensity (ln)” value was 6.8. “AGAATAATAAAATGGGTGCAATAGTTTTTTTTTTTT [GTGCAC_site9823]” was tested, and the “gcPBM binding intensity (ln)” value was 9.17. In the case of “TTCTTATCAAGAGAAAGTACATAAAAAATTAATAAG [XGTACX_site1821]”, the “gcPBM binding intensity (ln)” value is reported as 6.74. For “CAAAACCTACATAACATACACACGCATATATAGAAT [CACACA_site2846]”, the “gcPBM binding intensity (ln)” value was 6.61. “CCAACAAAAATAAGCACACACAAATATACATACATA [CACACA_site3606]” was tested, and the “gcPBM binding intensity (ln)” value was 6.83. With “CATGCAATATTAAACACACACTCATATAGCACAATA [CACACA_site6182]” the “gcPBM binding intensity (ln)” value was 7.82. In the case of “TCTTGACGAAGTAGAAGGATATATATATAAAAAAAA [CACACA_negctrl_site641]”, the “gcPBM binding intensity (ln)” value is reported as 6.77. With “AGGAGGTCAGTTCACAGTACCCAGAAAACTCTACGA [XGTACX_site1992]” the “gcPBM binding intensity (ln)” value was 5.74. For “TCGTCTCTTCTTGTTCTGTTTTAGAAGGCTATATAT [CACACA_negctrl_site180]”, the “gcPBM binding intensity (ln)” value was 6.99. “TCCAGGTATTTATTCTGTACACATAAAACATTTTAT [XGTACX_site8472]” was tested, and the “gcPBM binding intensity (ln)” value was 6.44. In the case of “TATTAAAGGGGTTTCACACACATGTATAATTAATTT [CACACA_site200]”, the “gcPBM binding intensity (ln)” value is reported as 6.5. With “AATTTGTTATGTATATGTACATAAATAGATATATGA [XGTACX_site3930]” the “gcPBM binding intensity (ln)” value was 6.55. With “AATATGAACAGACACACACACACAAAAAAAAAAAAA [CACACA_site2012]” the “gcPBM binding intensity (ln)” value was 6.71. With “AACCATATTTAGATTACACACAGTTTAAATATTTTA [CACACA_site6712]” the “gcPBM binding intensity (ln)” value was 6.36. “TGGTATATATTTCCTTGTACATATAATATATATTGT [XGTACX_site3961]” was tested, and the “gcPBM binding intensity (ln)” value was 6.51. For “TAATATAGTATAGTATGTACATATAATTAGAATATT [XGTACX_site4053]”, the “gcPBM binding intensity (ln)” value was 6.94. In the case of “ATATATATATATATATGTACATATTTTAATAATTAA [XGTACX_site8549]”, the “gcPBM binding intensity (ln)” value is reported as 9.22. In the case of “TGTTGTTACATATATACACACATATATATATTATAT [CACACA_site2397]”, the “gcPBM binding intensity (ln)” value is reported as 6.95. “CGCGCACACGGACACACACACACACGGATATAAATA [CACACA_site7102]” was tested, and the “gcPBM binding intensity (ln)” value was 7.18. For “TAAATATATTTATATTGTACATTTATGTTGATACCA [XGTACX_site228]”, the “gcPBM binding intensity (ln)” value was 6.37. “ATATATATATGTATATGTACATATATATACACATAT [XGTACX_site140]” was tested, and the “gcPBM binding intensity (ln)” value was 8.31. In the case of “TTTTGTGAATTTTAGATTTTTTAATACAAGAATATT [CACACA_negctrl_site606]”, the “gcPBM binding intensity (ln)” value is reported as 6.05. “TATATATATAATATATGTACTGATATGCTATTTACT [XGTACX_site841]” was tested, and the “gcPBM binding intensity (ln)” value was 7.42. With “ATATTTACCACTGTATGTACATATATAAAATATATC [XGTACX_site6373]” the “gcPBM binding intensity (ln)” value was 6.82. “ATTTAATTTATTATGTGTACTTATTTAATTAAATTA [XGTACX_site3171]” was tested, and the “gcPBM binding intensity (ln)” value was 6.36. “ATATTTTTATTTAAATCACATCATTTTGTTTATTTG [CACACA_negctrl_site1056]” was tested, and the “gcPBM binding intensity (ln)” value was 6.49. With “CATATAATTATTGAAAGTACATACAAATAAAAAGAT [XGTACX_site6535]” the “gcPBM binding intensity (ln)” value was 7.11. In the case of “TTATATATTTATAAATGTACATATAATTTTTTTATA [XGTACX_site4696]”, the “gcPBM binding intensity (ln)” value is reported as 6.37. “CTGATATATAGATGTAGTACATAAAAATGACGAATT [XGTACX_site5612]” was tested, and the “gcPBM binding intensity (ln)” value was 6.55. For “CAAAATAAAAAATTCACACACATATAAATATAAATA [CACACA_site7065]”, the “gcPBM binding intensity (ln)” value was 6.44. With “AAAAAAAAAGGTACTACACACTATTATCAATAGAAA [CACACA_site91]” the “gcPBM binding intensity (ln)” value was 6.26. In the case of “TACTTATTATGAAACACACACCAAAACTACAGAATA [CACACA_site6265]”, the “gcPBM binding intensity (ln)” value is reported as 7.04. For “ATATTTTATAATTTTACACACCATATAAAATAATTC [CACACA_site2797]”, the “gcPBM binding intensity (ln)” value was 6.86. With “ACATGAAACTATAAACGTACATACATACATATATAT [XGTACX_site5011]” the “gcPBM binding intensity (ln)” value was 6.53. For “AATAGTTAAATGTACACACTAACTACATGGAATATA [CACACA_site3262]”, the “gcPBM binding intensity (ln)” value was 6.18. For “TATATATAAAACATATGTACATATATATATATATAT [XGTACX_site419]”, the “gcPBM binding intensity (ln)” value was 9.44. For “AAGTAAAAAAATAGCACACACACAAAAACACCCACA [CACACA_site1291]”, the “gcPBM binding intensity (ln)” value was 7.17. With “ATATATATATAGTGCACACATATAAAATATATATAA [CACACA_site2745]” the “gcPBM binding intensity (ln)” value was 10.8. With “TTTACAGATACTTGCTCACACATATGTATAAAAATA [CACACA_site4928]” the “gcPBM binding intensity (ln)” value was 7.16. With “TATAATATATATAGGAGTACGTATGTATATTTATAA [XGTACX_site3521]” the “gcPBM binding intensity (ln)” value was 6.65.
